Laboratory results reported in PubChem BioAssay (NCI).
Where “and” joins values, the source holds several entries; their conditions need not be identical. Equal entries are not always repeated.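 Method: 48-hour compound exposure of cells in 96-well plates, five concentrations, linear interpolation of endpoints. The concentration for 50% growth inhibition is given as GI50. TGI: total growth inhibition.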 Square brackets hold non-standard residues; d marks the D form. Peptide text beside a SMILES is read from it. * marks the point of attachment. ξ: configuration not given here. ξD = NC(CC(=O)O)C(=O)O; Ac3c = NC1(C(=O)O)CC1; Boc = CC(C)(C)OC(=O)*; OBn = c1ccc(CO*)cc1

Each molecule was assayed on NCI-H322M lung (assay: inhibition of tumour cell growth, NCI panel, 48 h).

Point of comparison: `CCOC(=O)c1cc2c(n1Cc1cc(OC)cc(OC)c1)-c1oncc1CCC2`, GI50 0.463 µM. Against it:
- CN(C)CCCNc1c2ccccc2nc2cccc([N+](=O)[O-])c12 — 21-fold lower, 0.0225 µM
- CCCCCCCCCCCCCCCC(=O)OCC1OC(n2cnc3c(=S)nc(N)[nH]c32)C(OC(=O)CCCCCCCCCCCCCCC)C1OC(=O)CCCCCCCCCCCCCCC (stereo unspecified) — higher, > 33.6 µM
- CCOC(=O)c1c2c(n3ccc(NC(=O)OC(C)(C)C)cc13)C(=O)c1ncccc1C2=O — 16-fold lower, 0.0296 µM
- Nc1ccccc1NC(=O)CCCCCCC(=O)Nc1ccc2c(c1)/C(=C/c1ccc[nH]1)C(=O)N2 — 15-fold higher, 6.72 µM
- O=C(Nc1ncc(Cc2ccccc2)s1)c1ccc2c(c1)OCCCO2 — higher, > 39.4 µM
- OCc1cccc(-c2ccc3ncc(-c4nc(NC5CC5)ncc4F)n3c2)c1 — 1.6-fold lower, 0.294 µM
- Nc1ccc(-c2nc3ccccc3[nH]2)c(O)c1 — 33-fold higher, 15.3 µM
- NC(=O)C(Br)CBr (stereo unspecified) — 41-fold higher, 18.9 µM
- O=C(Nc1ccc(Cl)cc1)c1cc2c(cc1O)[nH]c1ccccc12 — 4.2-fold higher, 1.94 µM
- COc1ccc(C(O)c2cc3c(N)c(C(=O)Nc4cccc(Cl)c4C)sc3nc2C)cc1 (stereo unspecified) — 1.9-fold higher, 0.869 µM
- O=c1[nH]cnc2c1nnn2C1OC(CO)C(O)C1O (stereo unspecified) — 19-fold higher, 8.66 µM
- CSc1ccc(-c2cc(-c3ccc(NC(=O)CCCN4CCCC4)cc3)nc(-c3ccc(NC(=O)CCCN4CCCC4)cc3)c2)cc1 — 9.2-fold higher, 4.28 µM
- CCCCCCOc1ccc(/C=N/NC(N)=S)cc1 — 75-fold higher, 34.6 µM
- C[C@@H]1COCCN1c1nc(-c2cnc(N)cc2C(F)F)nc(N2[C@H](C)COC[C@@H]2C)n1 — within 1.5-fold, 0.399 µM
- Fc1ccc(C2CC(c3cccc(Nc4ccncc4)c3)=NN2c2cc(Cl)cc(Cl)c2)cc1 (stereo unspecified) — 3.5-fold higher, 1.6 µM

With `CN(C)CCCNc1c2ccccc2nc2cccc([N+](=O)[O-])c12` the TGI was 0.0133 µM and 0.0485 µM.

Point of comparison: `CSc1ccc(-c2cc(-c3ccc(NC(=O)CCCN4CCCC4)cc3)nc(-c3ccc(NC(=O)CCCN4CCCC4)cc3)c2)cc1`, TGI 16.6 µM. Against it:
- O=C1CSC2=NCC3(NN12)c1ccccc1-c1ccccc13 — not separable, > 10 µM
- CC(C)(C)OC(=O)NC(Cc1ccc(O)cn1)C(N)=O (stereo unspecified) — higher, > 100 µM
- CCOC(=O)c1cc2c(n1Cc1cc(OC)cc(OC)c1)-c1oncc1CCC2 — higher, > 100 µM
- COC(=O)C1(NC(=O)C(CC(=O)OCc2ccccc2)NC(=O)OC(C)(C)C)CC1 (stereo unspecified) (Boc-[ξD](OBn)-[Ac3c]-OMe) — higher, > 100 µM
- CCCCCCCCCCCCCCCC(=O)OCC1OC(n2cnc3c(=S)nc(N)[nH]c32)C(OC(=O)CCCCCCCCCCCCCCC)C1OC(=O)CCCCCCCCCCCCCCC (stereo unspecified) — higher, > 50 µM
- C=C(CC(=O)Nc1ccc(C(=O)OC)o1)C(=O)OC — higher, > 100 µM
- CCOC(=O)c1c2c(n3ccc(NC(=O)OC(C)(C)C)cc13)C(=O)c1ncccc1C2=O — 9.9-fold lower, 1.68 µM
- Nc1ccccc1NC(=O)CCCCCCC(=O)Nc1ccc2c(c1)/C(=C/c1ccc[nH]1)C(=O)N2 — higher, > 100 µM
- C1#Cc2ccccc2OCCOc2ccccc2C#Cc2ccccc2OCCOc2ccccc21 — higher, > 100 µM
- O=c1[nH]c2ccccc2nc1/C=C(\O)C(F)F — higher, > 100 µM
- C[C@H](CC[C@@H](O)C(C)(C)O)[C@H]1CC[C@@]2(C)[C@@H]3CC=C4[C@@H](CC[C@H](O)C4(C)C)[C@]3(C)C(=O)C[C@]12C — higher, > 50 µM
- Cn1c(-c2ccc[se]2)ccc1-c1ccc(CO)[se]1 — higher, > 100 µM
- ON(CCc1ccncc1)Cc1ccccc1 — higher, > 100 µM
- O=C(Nc1ncc(Cc2ccccc2)s1)c1ccc2c(c1)OCCCO2 — higher, > 100 µM
- OCc1cccc(-c2ccc3ncc(-c4nc(NC5CC5)ncc4F)n3c2)c1 — 12-fold lower, 1.33 µM
- O=C(Nc1c(Cl)cc([N+](=O)[O-])cc1Cl)C(=O)C1C(=O)NC(=S)NC1=O — higher, > 100 µM
- Nc1ccc(-c2nc3ccccc3[nH]2)c(O)c1 — 4.3-fold higher, 70.8 µM
- CC(NC(=O)OCc1ccccc1)NC(=O)C(CC(=O)OC(C)(C)C)NC(=O)OC(C)(C)C (stereo unspecified) — higher, > 100 µM
- O=c1[nH]c(=O)n(COCc2ccccc2)c2ccc(Br)cc12 — higher, > 100 µM
- CCN(CC)CC(=O)/C=C/c1ccc(C)cc1 — higher, > 100 µM
- NC(=O)C(Br)CBr (stereo unspecified) — 2.8-fold higher, 46.6 µM
- COc1ccc(Oc2nc3ccc(C(F)(F)F)cc3nc2-c2ccccc2)cc1 — higher, > 100 µM
- O=C(Nc1ccc(Cl)cc1)c1cc2c(cc1O)[nH]c1ccccc12 — 2.5-fold lower, 6.67 µM
- COc1ccc2c(c1)nc1n2C(N)=Nc2ccccc2S1 — higher, > 100 µM
- O=C(OCCN1CCCCC1)C(c1ccccc1)C1(O)CCSCC1 (stereo unspecified) — higher, > 100 µM
- CCOC(=O)C1=C(C)C(C(=O)OC)/C(=C/c2cccc3cccnc23)C1=O (stereo unspecified) — not separable, > 10 µM
- OCC(Cn1cncn1)(c1ccc(F)cc1F)n1cncn1 (stereo unspecified) — higher, > 100 µM
- CSc1nc(NC2OCC(O)C(O)C2O)c(N)c(=O)n1C (stereo unspecified) — higher, > 100 µM
- CCOC(=O)C(NC(=O)CC(C)C)(Nc1ccc(C(F)(F)F)cc1)C(F)(F)F (stereo unspecified) — higher, > 100 µM
- COc1ccc(C(O)c2cc3c(N)c(C(=O)Nc4cccc(Cl)c4C)sc3nc2C)cc1 (stereo unspecified) — 9.2-fold lower, 1.81 µM
- O=c1[nH]cnc2c1nnn2C1OC(CO)C(O)C1O (stereo unspecified) — higher, > 100 µM
- CNS(=O)(=O)NN(C)S(=O)(=O)c1ccc(Cl)cc1 — higher, > 100 µM
- O=C(/C=C/c1ccc(-c2ccccc2)cc1)NCc1ccc(C(=O)NCCc2c[nH]c3ccccc23)cc1 — higher, > 100 µM
- CC1CC[C@@]2(OC1)O[C@H]1C[C@H]3[C@@H]4CC[C@H]5C[C@@H](OC6OC(CO)C(OC7OC(CO)C(OC8OC(CO)C(O)C(OC9OC(C)C(OC%10OC(C)C(O)C(O)C%10O)C(O)C9O)C8OC8OCC(O)C(O)C8O)C(O)C7O)C(O)C6O)CC[C@]5(C)[C@H]4CC(=O)[C@]3(C)[C@H]1[C@@H]2C (stereo partly specified) — 2.2-fold higher, 36.1 µM
- CCCCCCOc1ccc(/C=N/NC(N)=S)cc1 — higher, > 100 µM
- CCOCC(=O)N[C@H]1CCc2cc(OC)c(OC)c(OC)c2-c2ccc(SC)c(=O)cc21 — higher, > 21.5 µM
- CS(=O)(=O)OCCN1CCN(C(=O)c2cccc3c(Nc4ccc(S(N)(=O)=O)cc4)c4ccccc4nc23)CC1 — higher, > 100 µM
- C[C@@H]1COCCN1c1nc(-c2cnc(N)cc2C(F)F)nc(N2[C@H](C)COC[C@@H]2C)n1 — within 1.5-fold, 14.1 µM
- O=C1O[C@H](C(Cl)(Cl)Cl)N2CCCC12 (stereo partly specified) — higher, > 100 µM
- O=C1C=C2CO[C@H]3OC[C@H](O)[C@@H]1[C@@H]23 — higher, > 100 µM
- CCON=C1C(C)(C)C(C)(C)C(C)(C)C1(C)C — higher, > 100 µM
- O=Nc1c(-c2cccc([N+](=O)[O-])c2)nc2cnccn12 — 4-fold higher, 66.4 µM
- Fc1ccc(C2CC(c3cccc(Nc4ccncc4)c3)=NN2c2cc(Cl)cc(Cl)c2)cc1 (stereo unspecified) — 5.5-fold lower, 3 µM
